Results: a collection of fitness landscapes (doi:10.1016/j.celrep.2020.107928)
Whole data set: some 81,000 sequences, median “one-hybrid fitness for binding parS DNA” near -0.17, cut for the highest 2% near 0.51. Some of the results follow.

B1: Caulobacter ParB omega fusion; a variant is named by its letters at X, in order, B8GW30 (parent)
chain: MESVVVGEPGMSEGRRGLGRGLSALLGEVDAAPAQAPGEQLGGSREAPIEILQRNPDQPRRTFREEDLEDLSNSIREKGVLQPILVRPSPDTAGEYQIVAGERAWRAAQRAGLKTVPIMVRELDDLAVLEIGIIENVQRADLNVLEEALSYKVLMEKFERTQENIAQTIGKSXSHVANXMRLLXLPDEVQSYLVSGELTAXHARAIAAAADPVALAKQIIEGGLSVRETEALARKAPNLSAGKSKGGRPPRVKDTDTQALESDLSSVLGLDVSIDHRGSTGTLTITYATLEQLDDLCNRLTRGI

Variants of: B1
Assay: one-hybrid fitness for binding parS DNA (scaled: cognate 1, non-cognate 0); higher = stronger binding
Details: with parS DNA site
Method in brief: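 Caulobacter ParB libraries with four specificity codons randomised were screened by bacterial one-hybrid selection in the E. coli USO strain, using a HIS3 reporter whose site lies 19 bp from the promoter. Selection ran for 48 hours at 37°C on M9 lacking histidine, with 0.1 mM IPTG and 5 mM 3-AT. Plasmids were Illumina-sequenced before and after selection, three replicate libraries were pooled, and variants with under 10 reads were dropped. Fitness is the log change in each variant's read ratio to wild type, rescaled against the cognate and non-cognate sites.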

EEQS and SYCR cannot be ordered by “one-hybrid fitness for binding parS DNA” value: at most 0.2 for the first, at most 0.2 for the second.

FATS and TSAT cannot be ordered by “one-hybrid fitness for binding parS DNA” value: at most 0.2 for the first, at most 0.2 for the second.

KSTW and DLNC cannot be ordered by “one-hybrid fitness for binding parS DNA” value: at most 0.2 for the first, at most 0.2 for the second.

FDDR and MAMF cannot be ordered by “one-hybrid fitness for binding parS DNA” value: at most 0.2 for the first, at most 0.2 for the second.

TAMR and TLDT cannot be ordered by “one-hybrid fitness for binding parS DNA” value: at most 0.2 for the first, at most 0.2 for the second.

LNCT and SPCR cannot be ordered by “one-hybrid fitness for binding parS DNA” value: at most 0.2 for the first, at most 0.2 for the second.

INTC and RWTQ cannot be ordered by “one-hybrid fitness for binding parS DNA” value: at most 0.2 for the first, at most 0.2 for the second.

HCVL and EMQM cannot be ordered by “one-hybrid fitness for binding parS DNA” value: at most 0.2 for the first, at most 0.2 for the second.

PHCM and ISAH cannot be ordered by “one-hybrid fitness for binding parS DNA” value: at most 0.2 for the first, at most 0.2 for the second.

QDQR and LWED cannot be ordered by “one-hybrid fitness for binding parS DNA” value: at most 0.2 for the first, at most 0.2 for the second.

LAAD and LLTF cannot be ordered by “one-hybrid fitness for binding parS DNA” value: at most 0.2 for the first, at most 0.2 for the second.

LPGR and GLRM cannot be ordered by “one-hybrid fitness for binding parS DNA” value: at most 0.2 for the first, at most 0.2 for the second.

QHNR and NYWW cannot be ordered by “one-hybrid fitness for binding parS DNA” value: at most 0.2 for the first, at most 0.2 for the second.

HSQR and CARC cannot be ordered by “one-hybrid fitness for binding parS DNA” value: at most 0.2 for the first, at most 0.2 for the second.

AVMI and WAVC cannot be ordered by “one-hybrid fitness for binding parS DNA” value: at most 0.2 for the first, at most 0.2 for the second.

GPLG and PWSC cannot be ordered by “one-hybrid fitness for binding parS DNA” value: at most 0.2 for the first, at most 0.2 for the second.

PQPH and IGYM cannot be ordered by “one-hybrid fitness for binding parS DNA” value: at most 0.2 for the first, at most 0.2 for the second.

Compared with RKIY, SRAV is lower in “one-hybrid fitness for binding parS DNA” value: 0.352 for the first, at most 0.2 for the second.

SGTC and QIET cannot be ordered by “one-hybrid fitness for binding parS DNA” value: at most 0.2 for the first, at most 0.2 for the second.

LGLL and ITGW cannot be ordered by “one-hybrid fitness for binding parS DNA” value: at most 0.2 for the first, at most 0.2 for the second.

Compared with VTWG, RAPM is lower in “one-hybrid fitness for binding parS DNA” value: 0.201 for the first, at most 0.2 for the second.

IFNR and QDWL cannot be ordered by “one-hybrid fitness for binding parS DNA” value: at most 0.2 for the first, at most 0.2 for the second.

AGLF and LRCA cannot be ordered by “one-hybrid fitness for binding parS DNA” value: at most 0.2 for the first, at most 0.2 for the second.

FLSS and CVSE cannot be ordered by “one-hybrid fitness for binding parS DNA” value: at most 0.2 for the first, at most 0.2 for the second.

WINS and TCST cannot be ordered by “one-hybrid fitness for binding parS DNA” value: at most 0.2 for the first, at most 0.2 for the second.

First: RNCC
Second: WTRF
The “one-hybrid fitness for binding parS DNA” value of the first is higher: 0.704 for the first, at most 0.2 for the second.

ENNL and QRDV cannot be ordered by “one-hybrid fitness for binding parS DNA” value: at most 0.2 for the first, at most 0.2 for the second.

AGRR and SQSC cannot be ordered by “one-hybrid fitness for binding parS DNA” value: at most 0.2 for the first, at most 0.2 for the second.

LCLS and PKNP cannot be ordered by “one-hybrid fitness for binding parS DNA” value: at most 0.2 for the first, at most 0.2 for the second.

AWVV and ILGI cannot be ordered by “one-hybrid fitness for binding parS DNA” value: at most 0.2 for the first, at most 0.2 for the second.

CTES and KEER cannot be ordered by “one-hybrid fitness for binding parS DNA” value: at most 0.2 for the first, at most 0.2 for the second.

IHDF and VRVL cannot be ordered by “one-hybrid fitness for binding parS DNA” value: at most 0.2 for the first, at most 0.2 for the second.

SLWY and RAQV cannot be ordered by “one-hybrid fitness for binding parS DNA” value: at most 0.2 for the first, at most 0.2 for the second.

QRHF and MQVF cannot be ordered by “one-hybrid fitness for binding parS DNA” value: at most 0.2 for the first, at most 0.2 for the second.

AIAP and YLMY cannot be ordered by “one-hybrid fitness for binding parS DNA” value: at most 0.2 for the first, at most 0.2 for the second.

SALS and RMHE cannot be ordered by “one-hybrid fitness for binding parS DNA” value: at most 0.2 for the first, at most 0.2 for the second.

PETC and HVDL cannot be ordered by “one-hybrid fitness for binding parS DNA” value: at most 0.2 for the first, at most 0.2 for the second.

PKAR and TSGR cannot be ordered by “one-hybrid fitness for binding parS DNA” value: at most 0.2 for the first, at most 0.2 for the second.
